Measured values: the BET-seq Pho4 binding data (Le et al. 2018)
Some of the results follow. These are noisy estimates, calculated here from bound and input reads.

target: T1, Pho4 (S. cerevisiae) (UniProt P07270); assay: relative binding free energy (BET-seq); higher = weaker binding; details: reference: library average
T1 sequence: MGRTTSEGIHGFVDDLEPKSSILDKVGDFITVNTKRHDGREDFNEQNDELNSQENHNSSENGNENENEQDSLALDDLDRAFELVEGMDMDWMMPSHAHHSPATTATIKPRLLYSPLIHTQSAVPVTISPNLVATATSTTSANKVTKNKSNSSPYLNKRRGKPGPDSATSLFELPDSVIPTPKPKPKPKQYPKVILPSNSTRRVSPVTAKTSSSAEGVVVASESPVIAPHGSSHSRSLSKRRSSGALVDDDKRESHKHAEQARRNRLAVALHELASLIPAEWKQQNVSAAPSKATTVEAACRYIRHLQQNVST

Sequence	relative binding free energy
TTGTTCACGTGCAATT	0.43 kcal/mol
GTGTCCACGTGGTCGG	-0.14 kcal/mol
TATAGCACGTGGGTAG	-0.18 kcal/mol
AAGGGCACGTGAAGGT	0.13 kcal/mol
TGGAACACGTGGAATT	0.16 kcal/mol
TTGAACACGTGCAGGG	0.01 kcal/mol
GCTAGCACGTGGAGGT	-0.21 kcal/mol
TTTTGCACGTGCAAGC	0.11 kcal/mol
TGTAGCACGTGTAGTT	0.03 kcal/mol
GGTATCACGTGCGTAA	0.11 kcal/mol
TTGGACACGTGATTCT	0.18 kcal/mol
TGGCACACGTGGGGGG	-0.07 kcal/mol
TTCTGCACGTGTGTTT	0 kcal/mol
TATGGCACGTGCTATT	-0.25 kcal/mol
GATTACACGTGCAGGG	0.28 kcal/mol
CATGTCACGTGCGTGG	0.09 kcal/mol
TACGCCACGTGGTGTT	-0.14 kcal/mol
GTTTTCACGTGCAGGG	0.37 kcal/mol
TAGTACACGTGGGAAG	0.02 kcal/mol
AGGTGCACGTGTGGTC	0.02 kcal/mol
GGCAGCACGTGGTGAG	0.02 kcal/mol
GGCCTCACGTGGTTGT	0.22 kcal/mol
GGGGGCACGTGAGTCC	0.19 kcal/mol
TGCTGCACGTGGGGGA	-0.15 kcal/mol
TATCGCACGTGAGAGG	0.16 kcal/mol
AGATGCACGTGGGCCG	-0.25 kcal/mol

Sequence	relative binding free energy
GATTGCACGTGACGGA	0.29 kcal/mol
GGGAACACGTGTGATG	0.08 kcal/mol
AAGGTCACGTGGAGAG	0.11 kcal/mol
TTGCGCACGTGTGCTT	-0.11 kcal/mol
GGCGGCACGTGGTTTT	-0.05 kcal/mol
TCGTTCACGTGTAGGA	0.28 kcal/mol
TGCGTCACGTGAGGAA	0.18 kcal/mol
GGTTGCACGTGGCTTC	0.08 kcal/mol
GGGGGCACGTGCTTGT	-0.01 kcal/mol
GTGATCACGTGGGCTA	-0.03 kcal/mol
CAGGGCACGTGGGTTC	-0.17 kcal/mol
GGGTACACGTGAGGCG	0.33 kcal/mol
CTTTACACGTGGTGGA	0.1 kcal/mol
GCTGGCACGTGGTTGC	0.03 kcal/mol
CTGTGCACGTGCATGG	-0.06 kcal/mol
TTCGTCACGTGGCTTG	0.03 kcal/mol
GGAAGCACGTGTTCGG	-0.11 kcal/mol
TGGGGCACGTGAAAGC	0.02 kcal/mol
GGGGACACGTGGCATG	-0.04 kcal/mol
ATAGGCACGTGTAGCG	-0.03 kcal/mol
TTAAACACGTGGCGGT	-0.12 kcal/mol
AAGGGCACGTGGGTTT	-0.12 kcal/mol
GGGATCACGTGGGGTC	0.11 kcal/mol
GCTGCCACGTGTTGGT	-0.01 kcal/mol
ATGCGCACGTGTTGAG	-0.03 kcal/mol
CTTGTCACGTGATGAT	0.22 kcal/mol

Sequence	relative binding free energy
TTCCGCACGTGGGTGG	-0.1 kcal/mol
TGGGTCACGTGGGTCT	0.06 kcal/mol
TAGATCACGTGGACGG	0.17 kcal/mol
TGTTACACGTGATTGG	0.16 kcal/mol
TTTAACACGTGTGGTC	0.08 kcal/mol
TGCGGCACGTGATTAG	-0.04 kcal/mol
TAGGTCACGTGCTTTG	0.04 kcal/mol
AGAAGCACGTGTGTAG	-0.07 kcal/mol
GTATTCACGTGATGAT	0.39 kcal/mol
GTTTTCACGTGTATGC	0.28 kcal/mol
AGGGTCACGTGTGCTC	0.11 kcal/mol
TTCTTCACGTGCTGTG	0.22 kcal/mol
TATTGCACGTGCAGTG	0 kcal/mol
GGTTGCACGTGGGCAG	-0.07 kcal/mol
ACTGTCACGTGGGGTC	-0.09 kcal/mol
TTCGGCACGTGTGAGA	-0.02 kcal/mol
ACTGTCACGTGCGTGG	-0.11 kcal/mol
GGCGTCACGTGTGTTC	0.33 kcal/mol
AATTCCACGTGGGGTT	0 kcal/mol
TGTGTCACGTGAAATA	0.24 kcal/mol
GGATTCACGTGGGTCG	0.16 kcal/mol
TGAAGCACGTGTGGTG	0.05 kcal/mol
TTTGACACGTGTCGCG	-0.01 kcal/mol
GGGGGCACGTGAGAAT	0.28 kcal/mol
GTGAGCACGTGTTTTC	-0.02 kcal/mol
GCGGTCACGTGGGAGA	-0.05 kcal/mol

Sequence	relative binding free energy
GTTGGCACGTGCAGGT	-0.12 kcal/mol
TTCTGCACGTGTGGGA	-0.06 kcal/mol
GTCTGCACGTGGTGAT	-0.08 kcal/mol
GTTCTCACGTGGGCTT	0.22 kcal/mol
GCGGTCACGTGTAGGT	0.16 kcal/mol
ATGGGCACGTGGCGGG	-0.19 kcal/mol
AAGGGCACGTGAGCCG	0.09 kcal/mol
TGAGCCACGTGGCGTT	-0.06 kcal/mol
GGTTTCACGTGGTAGT	0.29 kcal/mol
TGGGTCACGTGGTTGT	0.15 kcal/mol
TCAATCACGTGTTAGG	0.06 kcal/mol
ATATTCACGTGGGAGT	0.17 kcal/mol
GTTTCCACGTGTATGT	0.01 kcal/mol
AGCTACACGTGAGGTG	0.35 kcal/mol
ATAGGCACGTGTGCGA	-0.18 kcal/mol
TTACGCACGTGGGTAA	-0.16 kcal/mol
AGTGGCACGTGAGATA	0.09 kcal/mol
TAGACCACGTGGTTTG	-0.02 kcal/mol
ATGACCACGTGGTATG	-0.1 kcal/mol
GACTTCACGTGTTATT	0.28 kcal/mol
CGGTACACGTGTTGTG	-0.08 kcal/mol
GTAAGCACGTGTTGAT	-0.1 kcal/mol
GAATTCACGTGGGGGT	0.15 kcal/mol
TCGGGCACGTGGTGTG	-0.16 kcal/mol
TTTAGCACGTGCGGTA	-0.12 kcal/mol
GCTTGCACGTGTGTGA	-0.02 kcal/mol

Sequence	relative binding free energy
AGGTGCACGTGTAGCG	-0.04 kcal/mol
ATGGGCACGTGGTCTT	-0.21 kcal/mol
CCGTGCACGTGTTGTG	-0.17 kcal/mol
CGTGTCACGTGAATGG	0.16 kcal/mol
ATTGACACGTGTTCGG	-0.16 kcal/mol
TAAGGCACGTGATGTG	0.02 kcal/mol
TGTCACACGTGTGGGC	0.12 kcal/mol
TTACGCACGTGGGTTA	-0.19 kcal/mol
AGAAGCACGTGGAGAT	-0.04 kcal/mol
AAGATCACGTGAGTTG	0.19 kcal/mol
TAGTGCACGTGGTTAG	-0.08 kcal/mol
TATATCACGTGGGGTA	-0.04 kcal/mol
TTAGTCACGTGTTTTA	0.18 kcal/mol
TGTTACACGTGGGTCC	0 kcal/mol
TGAGCCACGTGCGTGT	-0.12 kcal/mol
CAAGTCACGTGGTTAG	0.04 kcal/mol
TGTTACACGTGAGTCG	0.29 kcal/mol
AATGGCACGTGGTGTC	-0.23 kcal/mol
TGTCACACGTGAATGT	0.18 kcal/mol
CATTGCACGTGGTGAT	-0.11 kcal/mol
ATTATCACGTGAAGTT	0.32 kcal/mol
GGGAACACGTGTCTGG	0.17 kcal/mol
TTTGTCACGTGCCATT	0.01 kcal/mol
TTGCTCACGTGGTAAT	0.22 kcal/mol
GGGCTCACGTGAGTTT	0.46 kcal/mol
CGCGGCACGTGTAAGT	0.06 kcal/mol

Sequence	relative binding free energy
TATCGCACGTGGAATG	0.03 kcal/mol
GGTGGCACGTGGGATG	-0.14 kcal/mol
GGGGGCACGTGTGGAG	0.01 kcal/mol
GGGGGCACGTGCGGTG	-0.12 kcal/mol
AGTGGCACGTGGCGAG	-0.1 kcal/mol
CGAATCACGTGGGTAG	0.09 kcal/mol
AGGATCACGTGAGTTA	0.23 kcal/mol
AGTATCACGTGAGGGC	0.29 kcal/mol
TTTTGCACGTGCGGAG	0.1 kcal/mol
CGTTACACGTGTAGAT	0.34 kcal/mol
GAGTTCACGTGATTGA	0.33 kcal/mol
TGTACCACGTGGGGAG	-0.24 kcal/mol
TATCACACGTGGTGGG	-0.1 kcal/mol
GTAAACACGTGATGAT	0.33 kcal/mol
AGGTCCACGTGGTTTT	-0.04 kcal/mol
ATGTTCACGTGTTGGG	0.29 kcal/mol
ATATGCACGTGGGGCG	-0.19 kcal/mol
TGAATCACGTGGAGGC	0.11 kcal/mol
AGAGACACGTGTGGGT	0.08 kcal/mol
GTCAGCACGTGTTGGC	0.06 kcal/mol
ACAGGCACGTGTAGGG	-0.14 kcal/mol
GTTTGCACGTGGCAGT	-0.05 kcal/mol
AGGAGCACGTGTACGG	-0.09 kcal/mol
GGCATCACGTGGGGGG	-0.06 kcal/mol
TTGGGCACGTGGGATC	-0.01 kcal/mol
AGTTACACGTGGTTTC	0.06 kcal/mol

Sequence	relative binding free energy
TTCGTCACGTGTAAGA	0.1 kcal/mol
ATGCGCACGTGTGTGC	-0.11 kcal/mol
TAAGCCACGTGTGAGT	-0.15 kcal/mol
TACGTCACGTGTATGG	0.14 kcal/mol
GTTGTCACGTGGGGAG	0.07 kcal/mol
GGCATCACGTGCATGG	0.21 kcal/mol
GGGGTCACGTGAGCGC	0.38 kcal/mol
TGGCTCACGTGTTGAA	0.27 kcal/mol
AGTGTCACGTGGGGAG	-0.04 kcal/mol
TGGAACACGTGATGCG	0.11 kcal/mol
TTCATCACGTGGTGGT	0.11 kcal/mol
CGGGGCACGTGATGAA	0.1 kcal/mol
TACGTCACGTGAGGTT	0.17 kcal/mol
GGGTCCACGTGGATGG	0.08 kcal/mol
TGTAGCACGTGTTTAA	-0.04 kcal/mol
TGATGCACGTGATGGA	0 kcal/mol
TGAGGCACGTGTGGGT	-0.04 kcal/mol
TTACGCACGTGTGTAA	-0.14 kcal/mol
TCGGTCACGTGTTATA	0.06 kcal/mol
AAGTGCACGTGTCGGA	0.07 kcal/mol
ACTAGCACGTGGGGGG	-0.21 kcal/mol
AGTGTCACGTGTAGAT	0.09 kcal/mol
AAGAGCACGTGGTTAA	-0.2 kcal/mol
GACTTCACGTGATGGG	0.33 kcal/mol
GGGTTCACGTGAATAG	0.46 kcal/mol
CTTATCACGTGGGGTG	-0.04 kcal/mol

Sequence	relative binding free energy
TTCGCCACGTGGGATT	0.03 kcal/mol
ATTGACACGTGTTTAA	0.05 kcal/mol
GGGTCCACGTGTGTTA	0.16 kcal/mol
GTATTCACGTGTTCGC	0.3 kcal/mol
GGGTCCACGTGTTGTA	-0.08 kcal/mol
TCCGACACGTGGGGTT	-0.06 kcal/mol
AGGCGCACGTGCAGGT	-0.12 kcal/mol
GGGGTCACGTGACTAG	0.22 kcal/mol
ATTGTCACGTGTTTTG	0.07 kcal/mol
GTTAGCACGTGATGTT	0.27 kcal/mol
TTTGCCACGTGTTGTA	-0.02 kcal/mol
GGTGTCACGTGGTCGT	-0.02 kcal/mol
TCTGTCACGTGTTGGA	-0.02 kcal/mol
GCTCGCACGTGGGGGG	-0.24 kcal/mol
GGGCGCACGTGTAGAG	-0.13 kcal/mol
AAATGCACGTGCATGG	0.05 kcal/mol
GGTGTCACGTGAATAT	0.18 kcal/mol
TTCTGCACGTGCGTAT	-0.03 kcal/mol
CAGTTCACGTGGAGGG	0.06 kcal/mol
GTTAGCACGTGATCAG	0.1 kcal/mol
TAAGACACGTGGTCTG	-0.08 kcal/mol
AATCGCACGTGAAGTG	0.39 kcal/mol
AATTACACGTGATAGT	0.15 kcal/mol
TTCGACACGTGAGGGA	0.19 kcal/mol
TAGTGCACGTGCGAGT	-0.05 kcal/mol
GGGATCACGTGTTCGT	0.06 kcal/mol

Sequence	relative binding free energy
GGTAACACGTGACGGG	0.23 kcal/mol
GTTGTCACGTGTAAGG	0.27 kcal/mol
GTCTGCACGTGTGGGG	0.15 kcal/mol
AGTGTCACGTGCGTAG	0.01 kcal/mol
GGGGGCACGTGTGCAA	-0.3 kcal/mol
TTGGACACGTGTATCT	0.16 kcal/mol
TTATGCACGTGCGAGT	-0.1 kcal/mol
GGCGACACGTGTTATT	0.21 kcal/mol
TACATCACGTGTAAGG	0.19 kcal/mol
GAGGGCACGTGTGGCA	0.02 kcal/mol
CAAGGCACGTGGAAGG	-0.06 kcal/mol
CTTTGCACGTGGGAAG	-0.04 kcal/mol
TTATTCACGTGTTCTT	0.27 kcal/mol
TTTTTCACGTGATGGA	0.47 kcal/mol
TGATTCACGTGGGACT	0.26 kcal/mol
ATATGCACGTGTAGTA	-0.22 kcal/mol
TATTGCACGTGGCTTA	-0.08 kcal/mol
TGTCTCACGTGGACGT	0.27 kcal/mol
GGGAACACGTGGGTGC	0.01 kcal/mol
TGCTTCACGTGGACGT	0.4 kcal/mol
CGATTCACGTGGGTTG	0.13 kcal/mol
TAGGGCACGTGGAGCG	0 kcal/mol
